Results as given in PubChem BioAssay AID686979 (National Center for Advancing Translational Sciences (NCATS), 2013).
Among all 420,000 compounds or so, about 50,000 (12%) were called active. This list was built around the results that the source calls inconclusive (neither active nor inactive); the mix of calls is not that of the screen. The call rests on the fitted dose curve; in most records, active means well fitted inhibition curve with a large enough effect; inconclusive means small, poorly fitted or top-dose-only effect; inactive means flat fitted curve, though single readings scatter. Potencies of inconclusive entries are left out as doubtful fits.

Assay: qHTS for Inhibitors of human tyrosyl-DNA phosphodiesterase 1 (TDP1): qHTS in cells in presence of CPT; further: nearly all actives have a fitted effect of over 55% in size
Details: chicken DT40 Tdp1-/-;hTDP1 cells + 20 nM CPT, ATP luminescence, 48 h; activity change, negative = growth inhibition: at 46.2 µM (top of the series) unless noted
Method in brief: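 Chicken DT40 Tdp1-/- cells complemented with human TDP1, 400 cells/well, exposed to compounds plus 20 nM camptothecin for at least 48 h at 37 C; viability read as ATP content by CellTiter-Glo luminescence.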
On the % scale 0 is the no-effect control and ±100 the full control effect; potency means the concentration at half of the fitted maximal effect; tags describe the fitted curve by direction and shape.

Structure (SMILES)	Potency	activity change, negative = growth inhibition
Cn1cc(C(=O)c2ccc(Cl)cc2Cl)cc1C(=O)N/N=C(\N)COc1ccc(Cl)cc1	inconclusive [inhibitor, single point]	–
CN(C)C1=NCCN1CCC1CCCCC1	active: 11.6 µM	–
O=C1OCCN1c1c(-c2ccccc2)c(-c2cccs2)nc2c(-c3ccccc3)cccc12	inactive	–
CCc1ccc(Nc2ncc3c(n2)CC(c2ccc(OC)cc2)CC3=O)cc1 (configuration not stated)	inconclusive [inhibitor, single point]	–
COC(C[C@@H]1O[C@@H]1C(=O)COCc1ccccc1)OC	active: 18.4 µM	–
Cc1cccc(NC(=O)c2c(N)sc3c2CCC(C)C3)c1 (configuration not stated)	inconclusive [inhibitor, single point]	–
C[C@H](NC(=O)c1nc[nH]c1C(=O)NCc1ccc(CNC(=O)OC(C)(C)C)cc1)C(=O)OC(C)(C)C	active: 18.4 µM	–
CC1=C(C(=O)N(C(C)C)C(C)C)CC(CC(=O)NCc2cccc3ccccc23)C(=O)N1Cc1ccc(F)cc1 (configuration not stated)	inconclusive [inhibitor, full curve, poor fit]	–
CCCCOC(=O)CSc1nc2ccccc2o1	inactive	–
COc1ccc(-c2cccc(NS(=O)(=O)c3cc(C)ccc3OC)c2)nn1	active: 16.4 µM	–
CC(C)NC(=O)c1c(CSc2ccccc2)noc1C(=O)NCc1ccccc1	inactive	–
CN(C)c1ccc(NC(=O)C(=O)C2C(=O)Nc3ccccc32)cc1 (configuration not stated)	inactive	–
Cc1cc(C)c(C)c(S(=O)(=O)N2CCC(C(=O)NCCCN3CCCC3=O)CC2)c1C	inconclusive [inhibitor, single point]	–
Cc1cc(Oc2ccccc2)nc(C#N)n1	inactive	–
N#Cc1nc(/C=C/c2ccc(F)cc2)oc1NC1CCCCC1	inconclusive [inhibitor, single point]	–
COc1ccc(C(=O)NCC(c2ccco2)S(=O)(=O)c2cccs2)cc1 (configuration not stated)	inconclusive [inhibitor, single point]	–
CCCCCCCC[n+]1c(C)n(-c2ccccc2)c2ccc(NC(C)=O)cc21	active: 0.411 µM	–
Cc1cc2c(Nc3ccccc3O)ncnc2s1	inactive	–
C[N+]1=C(/C=C/Nc2ccccc2Cl)C(C)(C)c2ccccc21	active: 23.1 µM	–
CCCCCCN1C[C@@H](O)[C@H](n2cc(C3CC3)nn2)C[C@@H]1c1ccccc1	active: 18.4 µM	–
COCCN(C(=O)Cc1cccs1)C(C(=O)NCc1ccc(OC)cc1)c1ccc(C(C)C)cc1 (configuration not stated)	inconclusive [inhibitor, single point]	–
C=CC(C1=CC(=O)C=CC1=O)c1ccccc1 (configuration not stated)	inconclusive [inhibitor, single point]	–
COc1ccc(N(CC(=O)NCc2ccc3c(c2)OCO3)S(=O)(=O)c2c(C)nn(C)c2C)cc1	inconclusive [inhibitor, single point]	–
CCN(CC(=O)NCc1ccc(Cl)cc1)S(=O)(=O)c1ccc(F)cc1	inconclusive [inhibitor, single point]	–

Structure (SMILES)	Potency	activity change, negative = growth inhibition
Cc1ccccc1NC(=O)c1c(NC(=O)c2cccs2)sc2c1CCC(C)C2 (configuration not stated)	inactive	–
CCOc1cc(CNc2ccc(Br)cc2)cc(Br)c1OCC(=O)NC(C)(C)C	active: 20.6 µM	–
COCCN(C(=O)c1oc2ccccc2c1COC)c1c(N)n(CC(C)C)c(=O)[nH]c1=O	inactive	–
CN(C)S(=O)(=O)c1ccc(C(=O)Nc2ccc3c(c2)CCC3)cc1	inconclusive [inhibitor, single point]	–
COc1ccc(-c2ccc(SCC(=O)c3cccs3)nn2)cc1OC	inconclusive [inhibitor, single point]	–
COc1ccc(C(C(=O)Nc2ccc(F)cc2)N2CCN(C(=O)c3ccco3)CC2)cc1 (configuration not stated)	inactive	–
O=C1C(Cl)=C(N2CCCC2)C(=O)N1c1ccccc1F	inactive	–
O=C(Cn1cc(COc2ccc3ccccc3c2)nn1)NS(=O)(=O)c1cccc(OC(F)F)c1	inactive	–
Cc1onc(-c2ccccc2)c1C(=O)N1CCN(c2ccccc2F)CC1	inconclusive [inhibitor, single point]	–
CC(C)(O)C#Cc1ccc(CN2CCC(CO)(CCc3ccccc3)CC2)cc1	–	inconclusive: -32.4% [inhibitor]
O=C(CCN1C(=O)C2C3C=CC(C3)C2C1=O)Nc1nccs1 (configuration not stated)	inconclusive [inhibitor, single point]	–
Cc1cc[n+]2c3c(cccc13)CCC2	active: 20.6 µM	–
O=C(NCCc1ccccc1)c1ccc(NC(=O)C2CCCCC2)cc1	inactive	–
COc1ccccc1-c1cc(C(=O)N/N=C/C=C/c2ccccc2[N+](=O)[O-])c2ccccc2n1	active: 18.4 µM	–
COc1ccc(-c2nc3cc(NC(=O)c4cc5ccccc5o4)ccc3o2)cc1	inconclusive [inhibitor, partial curve]	–
O=C(Nc1ccc(F)cc1)C(CCc1ccccc1)N1CCN(c2cccc(C(F)(F)F)n2)CC1 (configuration not stated)	active: 18.4 µM	–
CCCNS(=O)(=O)c1ccc(OCC(=O)Nc2ccc3c(c2)OCCO3)c(C)c1	inconclusive [inhibitor, single point]	–
O=C(CN(C(=O)c1ccccc1Cl)C1CCCCC1)Nc1ccc(Cl)c([N+](=O)[O-])c1	inconclusive [inhibitor, single point]	–
C[n+]1cn(Cc2ccc(C#N)cc2)c2ccccc21	inactive	–
C/C(=N\NC(=O)C1(C)CC1(Br)Br)c1ccc(NC(=O)c2ccc(C)o2)cc1 (configuration not stated)	active: 13 µM	–
CCCC(C)Sc1nc2c([nH]1)c(=S)n(C)c(=O)n2C (configuration not stated)	active: 4.61 µM	–
O=[N+]([O-])c1ccc2c(c1)-c1ccccc1C2O (configuration not stated)	inconclusive [inhibitor, single point]	–
COc1ccc(C(=O)C=Cc2cccs2)c(O)c1	inconclusive [inhibitor, single point]	–
CCc1c(C)sc(NC(=O)c2cc(-c3ccc(O)cc3)on2)c1C#N	–	inconclusive: -30.7% [inhibitor]

Structure (SMILES)	Potency	activity change, negative = growth inhibition
Cc1ccn2c(Nc3ccccc3C)c(-c3ccccc3)nc2c1	active: 20.6 µM	–
CC(NC(=O)COC(=O)c1ccccc1Nc1ccccc1)c1ccccc1 (configuration not stated)	inconclusive [inhibitor, single point]	–
Cc1ccc2nc(N3CCN(S(=O)(=O)c4ccc5c(c4)OCCO5)CC3)c(C#N)cc2c1	active: 11.2 µM	–
Cc1ccc2cc(CCNS(=O)(=O)c3ccc(F)cc3)c(=O)[nH]c2c1C	active: 20.6 µM	–
Cc1ccc(S(=O)(=O)Nc2ccc(Nc3nccn4c(-c5ccc6ccccc6c5)cnc34)cc2)cc1	inconclusive [inhibitor, single point]	–
COc1ccc(Cl)cc1NC(=O)C12CCC(C)(C(=O)O1)C2(C)C (configuration not stated)	inconclusive [inhibitor, partial curve, poor fit]	–
Cc1cc(C)nc(N(C#N)CC(=O)N(c2ccccc2)C(C)C)n1	inconclusive [inhibitor, single point]	–
CCc1ccc2nc3c(c(C(=O)O)c2c1)CCC3	inactive	–
CC(C)(C)C1CCc2c(sc(NC(=O)c3ccncc3)c2C(N)=O)C1 (configuration not stated)	inconclusive [inhibitor, single point]	–
O=C(NNC(=S)Nc1ccccc1)NNC(=S)Nc1ccccc1	inconclusive [inhibitor, single point]	–
CC(=O)Nc1c2c3c(cccc3n(C)c1=O)C(=O)c1ccccc1-2	inactive	–
C[C@H]1CN([C@@H](C)CO)C(=O)CCCn2nncc2CO[C@H]1CN(C)C(=O)Nc1cccc2ccccc12	inactive	–
O=C(C[C@H]1C(=O)N(Cc2ccccc2)C[C@@H]1c1ccc(Br)cc1)Nc1ccc(Br)cc1	active: 25.9 µM	–
C=CCn1c(SCC(=O)Nc2cc(C)on2)nc2sc(C)c(C)c2c1=O	inconclusive [inhibitor, partial curve]	–
CSc1nnc(C(C)(C)C)c(=O)n1/N=C/c1ccccc1O	inconclusive [inhibitor, single point]	–
Cc1ccc(NCc2cccn2-c2nnc(N3CCC(C(=O)NCc4ccc(F)cc4)CC3)s2)cc1	inconclusive [inhibitor, single point]	–
CCn1ccc2cc(S(=O)(=O)N3CCC(C(=O)NCc4ccc(F)cc4)CC3)ccc21	inconclusive [inhibitor, single point]	–
c1ccc2c(CN3CCSCC3)cccc2c1	inactive	–
O=C1/C(=C\c2ccccc2)SC(=S)N1CCC(=O)N1CCCCC1CCO (configuration not stated)	inconclusive [inhibitor, single point]	–
Cc1cccc(OCC(=O)Nc2ccccc2OCc2cc(=O)n3cc(C)ccc3n2)c1	active: 13 µM	–
CCOC(=O)[C@H]1[C@H]2COc3ccc(C)cc3[C@@H]2N2C(=O)CN(Cc3ccccc3)C(=O)[C@@]12C	inconclusive [inhibitor, single point]	–
O=C(Nc1ccc2nc(SCC(=O)N3CCOCC3)sc2c1)c1ccccc1Cl	inconclusive [inhibitor, single point]	–
COc1cc(OC)cc(-c2c(-c3cccs3)c3cc(-c4cc(OC)c(OC)c(OC)c4)ccc3n2C)c1	inconclusive [inhibitor, single point]	–
CC(CNCCCn1cnc2c(OCc3ccccc3)ncnc21)c1ccccc1 (configuration not stated)	inconclusive [inhibitor, single point]	–
